Reference: the antibiotic and cytotoxicity screens of Wong et al. (2023)
This is one part of the list.

These compounds were tested on HSkMC (human skeletal muscle cells) (assay: cytotoxicity call (relative viability < 0.9)). Conditions: 10 µM.

Row | Structure (SMILES) | cytotoxicity call
1 | C[C@@H]1CN([C@H](C)CO)C(=O)c2cc(NC(=O)CCC(F)(F)F)ccc2O[C@H]1CN(C)Cc1ccc(C(=O)Nc2ccccc2N)cc1 | inactive
2 | CN1CCN(C(=O)C[C@@H]2CC[C@H]3[C@@H](COC[C@H](O)CN3C(=O)C3CCOCC3)O2)CC1 | inactive
3 | CC(C)(C)[S@@](=O)N1Cc2cc(C(=O)N3CCc4ccccc4C3)nc(-c3cccc(-c4cncnc4)c3)c2[C@H]1CCO | inactive
4 | COCC(=O)Nc1ccc2c(c1)OC[C@@H](C)N(Cc1ccccc1F)C[C@@H](C)[C@H](OC)CN(C)C2=O | inactive
5 | O=S(=O)(O)NC1CCCCC1 | inactive
6 | C[C@@H]1CN([C@@H](C)CO)C(=O)c2cccc(NC(=O)Nc3ccc(F)cc3)c2O[C@@H]1CN(C)C(=O)Nc1cccc2ccccc12 | inactive
7 | C[C@@H]1CN([C@@H](C)CO)C(=O)c2cccc(NC(=O)Nc3ccc(C(F)(F)F)cc3)c2O[C@H]1CN(C)Cc1ccc2c(c1)OCO2 | active
8 | CC(C)N1C[C@H](C)[C@@H](CN(C)Cc2ccc(Oc3ccccc3)cc2)Oc2c(NC(=O)c3cccnc3)cccc2C1=O | inactive
9 | CNC[C@@H]1Oc2ccc(NC(=O)CCN3CCOCC3)cc2CC(=O)N([C@H](C)CO)C[C@H]1C | inactive
10 | C[C@H](CO)N1C[C@H](C)[C@@H](CN(C)C(=O)Nc2ccc(F)cc2)OCCCC[C@H](C)Oc2ccc(NC(=O)Nc3ccc(C(F)(F)F)cc3)cc2C1=O | inactive
11 | CCC(=O)OCC(=O)C1(OC(=O)CC)C(C)CC2C3CCC4=CC(=O)C=CC4(C)C3(F)C(O)CC21C (configuration not stated) | inactive
12 | C[C@@H]1CN([C@@H](C)CO)C(=O)Cc2cc(NC(=O)Nc3ccc4c(c3)OCO4)ccc2O[C@@H]1CN(C)Cc1ccc(Cl)c(Cl)c1 | inactive

The compounds below were run on S. aureus RN4220 (assay: growth inhibition call (relative growth <= 0.2)). Conditions: 50 µM.

Row | Structure (SMILES) | growth inhibition call
13 | C[C@H](CO)N1C[C@H](C)[C@H](CN(C)C(=O)CCC(F)(F)F)OCCCC[C@H](C)Oc2ccc(NC(=O)CCC(F)(F)F)cc2C1=O | inactive
14 | C[C@@H]1CN([C@H](C)CO)C(=O)c2cccc(NC(=O)c3ccncc3)c2O[C@H]1CN(C)Cc1ccc(C(=O)O)cc1 | inactive
15 | O=C/C=C/c1ccccc1Cl | inactive
16 | C#Cc1ccc([C@@H]2C=C(C(=O)N3CCN(Cc4ccc5c(c4)OCO5)CC3)O[C@H](OCC)[C@H]2CCCO)cc1 | inactive
17 | C[C@H](NC(=O)[C@@H](Cc1ccc2ccccc2c1)NC(=O)[C@@H](C)N)C(=O)N[C@@H](Cc1c[nH]c2ccccc12)C(=O)N[C@H](Cc1ccccc1)C(=O)N[C@@H](CCCCN)C(N)=O | inactive
18 | C[C@H]1CN([C@@H](C)CO)S(=O)(=O)c2ccc(C#Cc3ccncc3)cc2O[C@H]1CN(C)C(=O)C1CCC1 | inactive
19 | O=C1O[C@H](c2ccccc2)[C@H](c2ccccc2)N2[C@H]1[C@@H](C(=O)NC[C@@H](O)c1ccccc1)[C@]1(C(=O)Nc3ccc(C#CC4(O)CCCCCC4)cc31)[C@H]2c1ccccc1OCCO | inactive
20 | C[C@H](CO)N1C[C@H](C)[C@H](CN(C)C(=O)CCC(F)(F)F)OCc2ccccc2-c2c(n(C)c3ccccc23)C1=O | inactive
21 | COCc1cn(CC[C@H]2CC[C@@H](NC(=O)CCN3CCCCC3)[C@H](CO)O2)nn1 | inactive
22 | C[C@H](CO)N1C[C@H](C)[C@H](CN(C)Cc2cccc3c2OCCCO3)OCc2cn(nn2)CCCC1=O | inactive
23 | CN(C)CCNC(=O)[C@H]1CN(Cc2cnn(C)c2)Cc2ccnn2C1 | inactive
24 | C[C@H](CO)N1C[C@H](C)[C@H](CN(C)C(=O)Nc2ccc(F)cc2)OCCCC[C@H](C)Oc2ccc(NC(=O)C3CCC3)cc2C1=O | inactive
25 | C[C@@H]1CCCCO[C@H](CN(C)C(=O)Nc2ccc(F)cc2)[C@@H](C)CN([C@H](C)CO)C(=O)c2cc(NC(=O)Nc3ccc(F)cc3)ccc2O1 | inactive
26 | Cc1ccc(S(=O)(=O)N2C[C@@H](O)COC[C@H]3O[C@H](CC(=O)NCc4ccc(Cl)c(Cl)c4)CC[C@@H]32)cc1 | inactive
27 | C[C@@H]1CN([C@H](C)CO)C(=O)Cc2cc(NC(=O)CCC(F)(F)F)ccc2O[C@@H]1CN(C)S(=O)(=O)c1ccccc1 | inactive
28 | C=C(C)C1=NC(C)(C)C[C@H](C)O1 | inactive
29 | Cc1ccc(S(=O)(=O)N(C)C[C@@H]2Oc3ccc(NC(=O)Cn4cnnn4)cc3CC(=O)N([C@@H](C)CO)C[C@@H]2C)cc1 | inactive
30 | C[C@H]1CN([C@@H](C)CO)C(=O)CCCn2nncc2CO[C@@H]1CN(C)C(=O)Nc1cccc2ccccc12 | inactive
31 | C[C@@H]1CN([C@@H](C)CO)C(=O)Cc2cc(NC(=O)Nc3ccc4c(c3)OCO4)ccc2O[C@@H]1CN(C)Cc1ccc(C(F)(F)F)cc1 | inactive
32 | COc1ccc(CN(C)C[C@H]2OCCCC[C@@H](C)Oc3ccc(NC(=O)Nc4ccc(F)cc4)cc3C(=O)N([C@@H](C)CO)C[C@H]2C)cc1 | inactive

Row | Structure (SMILES) | growth inhibition call
33 | C[C@@H]1CN([C@@H](C)CO)C(=O)c2cccc(NC(=O)c3cnccn3)c2O[C@H]1CN(C)CC1CCCCC1 | inactive
34 | COc1cc2c(cc1O)[C@H](c1ccc(CN3CCCC3)cc1)N(Cc1cc3c(cc1Br)OCO3)CC2 | inactive
35 | Cc1ccc(S(=O)(=O)Nc2ccc3c(c2)C(=O)N([C@@H](C)CO)C[C@H](C)[C@@H](CN(C)S(C)(=O)=O)O3)cc1 | inactive
36 | COc1ccc(CN(C)C[C@H]2OCCCC[C@H](C)Oc3ccc(NC(=O)Nc4ccc5c(c4)OCO5)cc3C(=O)N([C@H](C)CO)C[C@H]2C)cc1 | inactive
37 | C[C@@H]1CN([C@@H](C)CO)C(=O)c2cccc(NC(=O)Nc3cccc4ccccc34)c2O[C@@H]1CN(C)S(=O)(=O)c1ccc(Cl)cc1 | inactive
38 | C[C@H](CO)N1C[C@H](C)[C@@H](CN(C)C(=O)c2ccccc2)OCCCC[C@H](C)Oc2ccc(NS(=O)(=O)c3ccccc3)cc2C1=O | inactive
39 | C[C@@H]1CCCCO[C@H](CN(C)S(=O)(=O)c2cccs2)[C@H](C)CN([C@H](C)CO)C(=O)c2cc(NC(=O)NC3CCCCC3)ccc2O1 | inactive
40 | COc1ccc(S(=O)(=O)Nc2ccc3c(c2)C(=O)N([C@H](C)CO)C[C@@H](C)[C@@H](CN(C)C(=O)CCC(F)(F)F)OCCCC[C@@H](C)O3)cc1 | inactive
41 | C[C@@H]1CN([C@H](C)CO)C(=O)c2cc(NC(=O)CCC(F)(F)F)ccc2O[C@H]1CN(C)Cc1ccc(C(=O)Nc2ccccc2N)cc1 | inactive
42 | CN1CCN(C(=O)C[C@@H]2CC[C@H]3[C@@H](COC[C@H](O)CN3C(=O)C3CCOCC3)O2)CC1 | inactive
43 | CC(C)(C)[S@@](=O)N1Cc2cc(C(=O)N3CCc4ccccc4C3)nc(-c3cccc(-c4cncnc4)c3)c2[C@H]1CCO | inactive
44 | COCC(=O)Nc1ccc2c(c1)OC[C@@H](C)N(Cc1ccccc1F)C[C@@H](C)[C@H](OC)CN(C)C2=O | inactive
45 | O=S(=O)(O)NC1CCCCC1 | inactive
46 | C[C@@H]1CN([C@@H](C)CO)C(=O)c2cccc(NC(=O)Nc3ccc(F)cc3)c2O[C@@H]1CN(C)C(=O)Nc1cccc2ccccc12 | inactive
47 | C[C@@H]1CN([C@@H](C)CO)C(=O)c2cccc(NC(=O)Nc3ccc(C(F)(F)F)cc3)c2O[C@H]1CN(C)Cc1ccc2c(c1)OCO2 | inactive
48 | CC(C)N1C[C@H](C)[C@@H](CN(C)Cc2ccc(Oc3ccccc3)cc2)Oc2c(NC(=O)c3cccnc3)cccc2C1=O | inactive
49 | CNC[C@@H]1Oc2ccc(NC(=O)CCN3CCOCC3)cc2CC(=O)N([C@H](C)CO)C[C@H]1C | inactive
50 | C[C@H](CO)N1C[C@H](C)[C@@H](CN(C)C(=O)Nc2ccc(F)cc2)OCCCC[C@H](C)Oc2ccc(NC(=O)Nc3ccc(C(F)(F)F)cc3)cc2C1=O | inactive
51 | CCC(=O)OCC(=O)C1(OC(=O)CC)C(C)CC2C3CCC4=CC(=O)C=CC4(C)C3(F)C(O)CC21C (configuration not stated) | inactive
52 | C[C@@H]1CN([C@@H](C)CO)C(=O)Cc2cc(NC(=O)Nc3ccc4c(c3)OCO4)ccc2O[C@@H]1CN(C)Cc1ccc(Cl)c(Cl)c1 | inactive
